Publication PMC11268115
No constants are given. Whether binding was seen depends on the method and setting. In cells and extracts the contact can be indirect. Some binding calls cover weakened binding; strength is not graded here. Where a sequence is shown, tags or fusion partners need not be part of it.

The chains behind the UniProt entries cited, without tags or fusion partners.
UniProt O15392: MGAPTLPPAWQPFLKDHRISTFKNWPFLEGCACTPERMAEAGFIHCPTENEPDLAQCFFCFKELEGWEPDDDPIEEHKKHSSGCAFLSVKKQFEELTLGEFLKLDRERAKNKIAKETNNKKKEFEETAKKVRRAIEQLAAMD

What was measured:
Assay in all cases: co-IP; HEK-293 cells cotransfected with tagged plasmids, lysed after 24 h in cell lysis buffer with protease inhibitors; immunoprecipitation with Myc-Tag, HA-Tag or anti-Flag (M2) magnetic beads, Western blot of the tags
[1] = molecular target: T1, Myc-USP36 (1–420 aa), N-terminal USP domain (UniProt Q9P275)
T1 sequence: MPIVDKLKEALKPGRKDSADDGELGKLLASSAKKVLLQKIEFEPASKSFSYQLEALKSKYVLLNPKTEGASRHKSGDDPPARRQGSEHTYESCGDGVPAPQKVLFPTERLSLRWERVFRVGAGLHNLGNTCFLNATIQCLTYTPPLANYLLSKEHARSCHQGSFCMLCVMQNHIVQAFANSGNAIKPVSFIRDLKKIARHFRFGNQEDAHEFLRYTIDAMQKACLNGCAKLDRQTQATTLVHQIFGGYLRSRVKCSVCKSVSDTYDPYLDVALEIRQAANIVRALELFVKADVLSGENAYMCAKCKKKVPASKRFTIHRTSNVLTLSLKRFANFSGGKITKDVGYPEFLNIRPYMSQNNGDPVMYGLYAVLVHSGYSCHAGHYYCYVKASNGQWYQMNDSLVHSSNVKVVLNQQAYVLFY

Myc-USP36 (1–800 aa) = molecular target: T2, Myc-USP36 (1–800 aa) (UniProt Q9P275)
T2 sequence: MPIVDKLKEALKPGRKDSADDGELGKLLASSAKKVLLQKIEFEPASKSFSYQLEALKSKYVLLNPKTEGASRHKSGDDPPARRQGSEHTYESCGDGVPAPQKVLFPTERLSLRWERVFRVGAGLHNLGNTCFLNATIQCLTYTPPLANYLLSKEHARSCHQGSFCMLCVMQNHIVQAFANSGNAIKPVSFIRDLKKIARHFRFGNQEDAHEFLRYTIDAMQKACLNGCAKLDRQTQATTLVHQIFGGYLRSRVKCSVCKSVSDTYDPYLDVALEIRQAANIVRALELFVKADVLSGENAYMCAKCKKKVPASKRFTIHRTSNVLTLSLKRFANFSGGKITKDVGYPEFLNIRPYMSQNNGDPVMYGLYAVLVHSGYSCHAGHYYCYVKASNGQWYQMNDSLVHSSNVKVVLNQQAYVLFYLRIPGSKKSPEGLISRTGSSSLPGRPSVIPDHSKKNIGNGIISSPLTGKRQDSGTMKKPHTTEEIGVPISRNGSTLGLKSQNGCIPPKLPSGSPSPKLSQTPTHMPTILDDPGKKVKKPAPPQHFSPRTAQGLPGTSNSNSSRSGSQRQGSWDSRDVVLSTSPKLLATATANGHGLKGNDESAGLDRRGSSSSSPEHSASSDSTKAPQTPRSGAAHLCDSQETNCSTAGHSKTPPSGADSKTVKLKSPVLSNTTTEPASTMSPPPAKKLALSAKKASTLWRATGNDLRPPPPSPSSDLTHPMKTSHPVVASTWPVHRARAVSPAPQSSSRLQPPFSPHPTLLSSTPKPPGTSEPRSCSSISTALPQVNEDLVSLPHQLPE

[2] = molecular target: T3, Myc-USP36 (801–1121 aa), C-terminal domain (UniProt Q9P275)
T3 sequence: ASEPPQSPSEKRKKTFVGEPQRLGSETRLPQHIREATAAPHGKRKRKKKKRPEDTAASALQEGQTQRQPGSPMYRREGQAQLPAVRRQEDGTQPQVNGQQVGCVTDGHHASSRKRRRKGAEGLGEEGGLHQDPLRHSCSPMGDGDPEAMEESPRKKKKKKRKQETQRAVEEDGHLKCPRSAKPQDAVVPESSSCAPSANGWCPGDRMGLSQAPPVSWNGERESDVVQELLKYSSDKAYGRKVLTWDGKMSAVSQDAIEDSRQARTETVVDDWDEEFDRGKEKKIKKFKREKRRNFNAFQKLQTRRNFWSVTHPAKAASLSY

[3] = molecular target: T4, Myc-USP36 (ubiquitin-specific protease 36), full length, WT (UniProt Q9P275)
T4 sequence: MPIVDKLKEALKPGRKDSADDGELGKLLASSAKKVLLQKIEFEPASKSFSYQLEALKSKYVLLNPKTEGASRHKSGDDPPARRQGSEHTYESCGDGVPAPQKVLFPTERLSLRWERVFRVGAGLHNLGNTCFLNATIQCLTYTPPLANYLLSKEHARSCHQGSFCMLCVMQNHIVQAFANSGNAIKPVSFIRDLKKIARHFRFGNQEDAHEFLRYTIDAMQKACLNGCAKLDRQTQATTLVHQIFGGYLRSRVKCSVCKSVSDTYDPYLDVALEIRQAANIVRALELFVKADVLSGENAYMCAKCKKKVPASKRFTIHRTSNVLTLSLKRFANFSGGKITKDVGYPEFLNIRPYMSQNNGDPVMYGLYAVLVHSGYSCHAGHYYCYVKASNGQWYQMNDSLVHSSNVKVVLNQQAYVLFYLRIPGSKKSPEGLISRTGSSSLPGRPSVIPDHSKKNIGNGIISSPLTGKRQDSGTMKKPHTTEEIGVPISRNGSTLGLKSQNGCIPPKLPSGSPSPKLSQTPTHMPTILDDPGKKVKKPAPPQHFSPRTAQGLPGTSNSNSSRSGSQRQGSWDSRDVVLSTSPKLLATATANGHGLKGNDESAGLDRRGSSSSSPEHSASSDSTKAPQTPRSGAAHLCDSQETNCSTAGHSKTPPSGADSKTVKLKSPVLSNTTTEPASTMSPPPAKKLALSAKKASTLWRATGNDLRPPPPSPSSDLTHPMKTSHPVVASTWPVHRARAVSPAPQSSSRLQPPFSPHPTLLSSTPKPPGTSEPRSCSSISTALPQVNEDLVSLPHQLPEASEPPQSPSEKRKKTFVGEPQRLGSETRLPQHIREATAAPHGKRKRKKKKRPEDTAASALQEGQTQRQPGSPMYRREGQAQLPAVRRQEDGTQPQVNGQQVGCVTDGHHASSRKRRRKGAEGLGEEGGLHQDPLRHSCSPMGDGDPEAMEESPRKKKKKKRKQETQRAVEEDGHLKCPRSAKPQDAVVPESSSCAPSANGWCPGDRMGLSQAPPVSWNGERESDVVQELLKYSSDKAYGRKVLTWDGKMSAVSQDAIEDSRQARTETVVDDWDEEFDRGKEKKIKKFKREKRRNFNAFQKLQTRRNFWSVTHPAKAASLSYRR

In the case of HA-survivin (from UniProt O15392 1-142), the binding [1] is reported as “binds”, the binding (Myc-USP36 (1–800 aa)) is reported as “binds” and the binding [2] is reported as “no binding”. The binding [3] was “binds”.
